Measurements taken from the supplement of paper PMC8728848.
This is one part of the list.

Tests used:
Assay in all cases: glycan array binding signal (z-score within array); higher = stronger binding
Settings in all cases: glycan notation: IUPAC condensed, linker removed
[1] = biological target: Gal3S(b1-3)[Fuc(a1-4)]GlcNAc
Outline: (§1)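 The binding signal is a Z-score computed within each array. Data were drawn from 3228 arrays in the Consortium for Functional Glycomics database, restricted to those with a known protein sequence. Scores were averaged over arrays of the same protein sequence at different concentrations or buffers, and over linkers, and negative values can be taken as non-binding.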

Gal3S(b1-4)Glc = biological target: Gal3S(b1-4)Glc
Outline: as §1

Gal3S(b1-4)Glc6S = biological target: Gal3S(b1-4)Glc6S
Outline: as §1

Gal3S(b1-4)GlcNAc = biological target: Gal3S(b1-4)GlcNAc
Outline: as §1

[2] = biological target: Gal3S(b1-4)[Fuc(a1-3)]Glc6S
Outline: as §1

[3] = biological target: Gal3S(b1-4)[Fuc(a1-3)]GlcNAc
Outline: as §1

[4] = biological target: Gal3S(b1-4)[Fuc(a1-3)]GlcNAc6S
Outline: as §1

Gal3S4S(b1-4)GlcNAc = biological target: Gal3S4S(b1-4)GlcNAc
Outline: as §1

Gal3S6S(b1-4)GlcNAc = biological target: Gal3S6S(b1-4)GlcNAc
Outline: as §1

Gal3S6S(b1-4)GlcNAc6S = biological target: Gal3S6S(b1-4)GlcNAc6S
Outline: as §1

Gal4S(b1-4)GlcNAc = biological target: Gal4S(b1-4)GlcNAc
Outline: as §1

Gal4S6S(b1-4)GlcNAc = biological target: Gal4S6S(b1-4)GlcNAc
Outline: as §1

Gal6P(b1-4)GlcNAc = biological target: Gal6P(b1-4)GlcNAc
Outline: as §1

Gal6S(b1-3)GlcNAc = biological target: Gal6S(b1-3)GlcNAc
Outline: as §1

Gal6S(b1-3)GlcNAc6S = biological target: Gal6S(b1-3)GlcNAc6S
Outline: as §1

Gal6S(b1-4)Glc = biological target: Gal6S(b1-4)Glc
Outline: as §1

Gal6S(b1-4)Glc6S = biological target: Gal6S(b1-4)Glc6S
Outline: as §1

Gal6S(b1-4)GlcNAc = biological target: Gal6S(b1-4)GlcNAc
Outline: as §1

Gal6S(b1-4)GlcNAc6S = biological target: Gal6S(b1-4)GlcNAc6S
Outline: as §1

GalNAc(a1-3)Gal = biological target: GalNAc(a1-3)Gal
Outline: as §1

GalNAc(a1-3)GalNAc = biological target: GalNAc(a1-3)GalNAc
Outline: as §1

[5] = biological target: GalNAc(a1-3)GalNAc(b1-3)Gal(a1-4)Gal(b1-4)Glc
Outline: as §1

[6] = biological target: GalNAc(a1-3)GalNAc(b1-3)Gal(a1-4)Gal(b1-4)GlcNAc
Outline: as §1

GalNAc(b1-3)Gal = biological target: GalNAc(b1-3)Gal
Outline: as §1

[7] = biological target: GalNAc(b1-3)Gal(a1-4)Gal(b1-4)GlcNAc
Outline: as §1

[8] = biological target: GalNAc(b1-3)Gal(a1-4)Gal(b1-4)GlcNAc(b1-3)Gal(b1-4)Glc
Outline: as §1

[9] = biological target: GalNAc(b1-3)Gal(a1-6)Gal(b1-4)Glc
Outline: as §1

GalNAc(b1-3)GalNAc = biological target: GalNAc(b1-3)GalNAc
Outline: as §1

GalNAc(b1-3)GlcNAc = biological target: GalNAc(b1-3)GlcNAc
Outline: as §1

GalNAc(b1-4)Gal(b1-4)Glc = biological target: GalNAc(b1-4)Gal(b1-4)Glc
Outline: as §1

GalNAc(b1-4)GlcNAc = biological target: GalNAc(b1-4)GlcNAc
Outline: as §1

[10] = biological target: GalNAc(b1-4)GlcNAc(b1-2)Man
Outline: as §1

[11] = biological target: GalNAc(b1-4)GlcNAc(b1-2)Man(a1-3)[GalNAc(b1-4)GlcNAc(b1-2)Man(a1-6)]Man(b1-4)GlcNAc(b1-4)GlcNAc
Outline: as §1

[12] = biological target: GalNAc(b1-4)GlcNAc(b1-3)GalNAc(b1-4)GlcNAc
Outline: as §1

GalNAc(b1-4)GlcNAc6S = biological target: GalNAc(b1-4)GlcNAc6S
Outline: as §1

GalNAc(b1-6)GalNAc = biological target: GalNAc(b1-6)GalNAc
Outline: as §1

GalNAc3S(b1-4)GlcNAc = biological target: GalNAc3S(b1-4)GlcNAc
Outline: as §1

GalNAc3S(b1-4)GlcNAc3S = biological target: GalNAc3S(b1-4)GlcNAc3S
Outline: as §1

[13] = biological target: GalNAc3S(b1-4)[Fuc(a1-3)]GlcNAc
Outline: as §1

GalNAc4S6S(b1-4)GlcNAc = biological target: GalNAc4S6S(b1-4)GlcNAc
Outline: as §1

GalNAc6S(b1-4)GlcNAc = biological target: GalNAc6S(b1-4)GlcNAc
Outline: as §1

Glc(a1-4)Glc = biological target: Glc(a1-4)Glc
Outline: as §1

[14] = biological target: Glc(a1-4)Glc(a1-4)Glc(a1-4)Glc
Outline: as §1

Glc(a1-6)Glc(a1-6)Glc = biological target: Glc(a1-6)Glc(a1-6)Glc
Outline: as §1

[15] = biological target: Glc(a1-6)Glc(a1-6)Glc(a1-6)Glc
Outline: as §1

B1: Epa1to9 (Candida glabrata) (protein)
chain: MGSSHHHHHHSSGLVPRGSHMTSSNDISLASKDPTTFPLGCSPDITTPKKGLSMELYSYDFRKKGSYPCWDAAYLDPNYPRTGYKSHRLLAKVDGVTGNINFYYHATKGCTPQLGHLPASYNYPKPLTMTNFTMLLYGYFRPKVTGFHTFTISADDLLFVNFGAGNAFDCCRRDSSADHFGNYQAYAIWGSKTAKDELTVHLDAGVYYPIRLFYNNRDYHGALSFTFKTESNENTVSDFSEYFFSLDDTEEGCPGLISYD
glycan array binding signal (z-score) [1]: -0.345 | glycan array binding signal (z-score) (Gal3S(b1-4)Glc): -0.283 | glycan array binding signal (z-score) (Gal3S(b1-4)Glc6S): -0.343 | glycan array binding signal (z-score) (Gal3S(b1-4)GlcNAc): -0.465 | glycan array binding signal (z-score) [2]: -0.259 | glycan array binding signal (z-score) [3]: -0.406 | glycan array binding signal (z-score) [4]: -0.179 | glycan array binding signal (z-score) (Gal3S4S(b1-4)GlcNAc): -0.347 | glycan array binding signal (z-score) (Gal3S6S(b1-4)GlcNAc): -0.316 | glycan array binding signal (z-score) (Gal3S6S(b1-4)GlcNAc6S): 0.525 | glycan array binding signal (z-score) (Gal4S(b1-4)GlcNAc): -0.232 | glycan array binding signal (z-score) (Gal4S6S(b1-4)GlcNAc): -0.373 | glycan array binding signal (z-score) (Gal6P(b1-4)GlcNAc): 0.026 | glycan array binding signal (z-score) (Gal6S(b1-3)GlcNAc): 2.49 | glycan array binding signal (z-score) (Gal6S(b1-3)GlcNAc6S): 4.86 | glycan array binding signal (z-score) (Gal6S(b1-4)Glc): 5.05 | glycan array binding signal (z-score) (Gal6S(b1-4)Glc6S): 7.26 | glycan array binding signal (z-score) (Gal6S(b1-4)GlcNAc): 4.98 | glycan array binding signal (z-score) (Gal6S(b1-4)GlcNAc6S): 10.6 | glycan array binding signal (z-score) (GalNAc(a1-3)Gal): -0.358 | glycan array binding signal (z-score) (GalNAc(a1-3)GalNAc): -0.351 | glycan array binding signal (z-score) [5]: -0.35 | glycan array binding signal (z-score) [6]: -0.327 | glycan array binding signal (z-score) (GalNAc(b1-3)Gal): -0.347 | glycan array binding signal (z-score) [7]: -0.319 | glycan array binding signal (z-score) [8]: -0.313 | glycan array binding signal (z-score) [9]: -0.346 | glycan array binding signal (z-score) (GalNAc(b1-3)GalNAc): -0.342 | glycan array binding signal (z-score) (GalNAc(b1-3)GlcNAc): -0.358 | glycan array binding signal (z-score) (GalNAc(b1-4)Gal(b1-4)Glc): -0.335 | glycan array binding signal (z-score) (GalNAc(b1-4)GlcNAc): -0.351 | glycan array binding signal (z-score) [10]: -0.356 | glycan array binding signal (z-score) [11]: -0.337 | glycan array binding signal (z-score) [12]: -0.351 | glycan array binding signal (z-score) (GalNAc(b1-4)GlcNAc6S): -0.348 | glycan array binding signal (z-score) (GalNAc(b1-6)GalNAc): -0.349 | glycan array binding signal (z-score) (GalNAc3S(b1-4)GlcNAc): -0.355 | glycan array binding signal (z-score) (GalNAc3S(b1-4)GlcNAc3S): -0.353 | glycan array binding signal (z-score) [13]: -0.357 | glycan array binding signal (z-score) (GalNAc4S6S(b1-4)GlcNAc): -0.346 | glycan array binding signal (z-score) (GalNAc6S(b1-4)GlcNAc): -0.354 | glycan array binding signal (z-score) (Glc(a1-4)Glc): -0.36 | glycan array binding signal (z-score) [14]: -0.34 | glycan array binding signal (z-score) (Glc(a1-6)Glc(a1-6)Glc): -0.355 | glycan array binding signal (z-score) [15]: -0.347
